From PubChem BioAssay AID330 (DTP/NCI, 2004)
Several values for one entry are separate records, joined by “and”; a condition that tells them apart may be missing. Equal values may be shown once. Further values from the same series stand in other lists. Inconclusive results and toxic doses are left out.

System: P388 leukemia ip, CD2F1 mice, survival T/C
Assay: NCI In Vivo Anticancer Drug Screen. Data for tumor model P388 Leukemia (intraperitoneal) in CD2F1 (CDF1) mice
Conditions: endpoint: median survival time, higher = longer survival
Experimental: The antitumor activity of compounds was measured in mice bearing transplantable tumors. Survival or tumor size were measured and the results are expressed as the measurement made in the treated group (T) divided by the measurement made in the vehicle treated control group (C). The tumor model used in this assay is P388 Leukemia (intraperitoneal) in CD2F1 (CDF1) mice

N[C@@H](Cc1ccc(N(CCCl)CCCl)cc1)C(=O)O
T/C (dose: 0.5 mg/kg/injection, schedule: Q01DX009 (ip), vehicle: Klucel (hydroxypropylcellulose) (HPC)): 303 % of control
T/C (dose: 2.0 mg/kg/injection, schedule: Q01DX005 (ip), vehicle: water): 267 % of control
T/C (dose: 2.0 mg/kg/injection, schedule: Q01DX009 (ip), vehicle: Klucel (hydroxypropylcellulose) (HPC)): 303 % of control
T/C (dose: 2.0 mg/kg/injection, schedule: Q01DX009 (ip), vehicle: saline): 259 % of control
T/C (dose: 2.5 mg/kg/injection, schedule: Q01DX009 (ip), vehicle: saline): 309 % of control
T/C (dose: 3.0 mg/kg/injection, schedule: Q01DX005 (ip), vehicle: saline): 409 % of control
T/C (dose: 4.0 mg/kg/injection, schedule: Q01DX005 (ip), vehicle: water): 267 % of control
T/C (dose: 4.0 mg/kg/injection, schedule: Q01DX009 (ip), vehicle: saline): 381 % of control and 390 % of control
T/C (dose: 4.0 mg/kg/injection, schedule: Q01DX009 (ip), vehicle: suspension in saline): 288 % of control
T/C (dose: 4.5 mg/kg/injection, schedule: Q04DX003 (ip), vehicle: saline): 310 % of control
T/C (dose: 4.5 mg/kg/injection, schedule: Q04DX003 (ip), vehicle: water): 300 % of control
T/C (dose: 5.4 mg/kg/injection, schedule: Q04DX002 (ip), vehicle: saline): 394 % of control and 416 % of control
T/C (dose: 5.4 mg/kg/injection, schedule: Q04DX003 (ip), vehicle: saline): 266 % of control and 292 % of control
T/C (dose: 5.6 mg/kg/injection, schedule: Q04DX003 (ip), vehicle: saline): 290 % of control
T/C (dose: 6.0 mg/kg/injection, schedule: Q01DX005 (ip), vehicle: saline): 319 % of control and 409 % of control
T/C (dose: 6.0 mg/kg/injection, schedule: Q01DX009 (ip), vehicle: Klucel (hydroxypropylcellulose) (HPC)): 87 % of control
T/C (dose: 7.3 mg/kg/injection, schedule: Q04DX003 (ip), vehicle: saline): 525 % of control
T/C (dose: 7.5 mg/kg/injection, schedule: Q01DX001 (ip), vehicle: other): 293 % of control
T/C (dose: 7.5 mg/kg/injection, schedule: Q04DX003 (ip), vehicle: distilled water + Tween-80): 277 % of control
T/C (dose: 8.0 mg/kg/injection, schedule: Q01DX001 (ip), vehicle: suspension in saline): 275 % of control
T/C (dose: 8.0 mg/kg/injection, schedule: Q01DX005 (ip), vehicle: water): 267 % of control
T/C (dose: 8.0 mg/kg/injection, schedule: Q01DX009 (ip), vehicle: suspension in saline): 285 % of control
T/C (dose: 8.0 mg/kg/injection, schedule: Q04DX003 (ip), vehicle: saline): 267 % of control and 276 % of control and 412 % of control
T/C (dose: 8.0 mg/kg/injection, schedule: Q04DX003 (ip), vehicle: water): 297 % of control
T/C (dose: 8.4 mg/kg/injection, schedule: Q04DX003 (ip), vehicle: saline): 381 % of control
T/C (dose: 9.0 mg/kg/injection, schedule: Q04DX002 (ip), vehicle: saline): 394 % of control and 409 % of control and 416 % of control
T/C (dose: 9.0 mg/kg/injection, schedule: Q04DX003 (ip), vehicle: saline): 403 % of control and 420 % of control
T/C (dose: 10.0 mg/kg/injection, schedule: Q01DX001 (ip), vehicle: other): 274 % of control and 412 % of control
T/C (dose: 11.0 mg/kg/injection, schedule: Q04DX003 (ip), vehicle: saline): 315 % of control
T/C (dose: 12.0 mg/kg/injection, schedule: Q04DX003 (ip), vehicle: saline): 441 % of control
T/C (dose: 15.0 mg/kg/injection, schedule: Q01DX001 (ip), vehicle: other): 412 % of control and 588 % of control
T/C (dose: 15.0 mg/kg/injection, schedule: Q04DX003 (ip), vehicle: distilled water + Tween-80): 95 % of control
T/C (dose: 16.0 mg/kg/injection, schedule: Q01DX001 (ip), vehicle: suspension in saline): 275 % of control
T/C (dose: 16.0 mg/kg/injection, schedule: Q01DX009 (ip), vehicle: suspension in saline): 285 % of control
T/C (dose: 16.0 mg/kg/injection, schedule: Q04DX003 (ip), vehicle: saline): 93 % of control
T/C (dose: 16.5 mg/kg/injection, schedule: Q04DX003 (ip), vehicle: saline): 90 % of control
T/C (dose: 20.0 mg/kg/injection, schedule: Q04DX003 (iv), vehicle: saline): 87 % of control
T/C (dose: 22.5 mg/kg/injection, schedule: Q01DX001 (ip), vehicle: other): 588 % of control
T/C (dose: 22.5 mg/kg/injection, schedule: Q01DX001 (ip), vehicle: saline): 436 % of control
T/C (dose: 24.0 mg/kg/injection, schedule: Q04DX003 (ip), vehicle: saline): 61 % of control

CC[C@]1(O)C[C@H]2CN(CCc3c([nH]c4ccccc34)[C@@](C(=O)OC)(c3cc4c(cc3OC)N(C=O)[C@H]3[C@@](O)(C(=O)OC)[C@H](OC(C)=O)[C@]5(CC)C=CCN6CC[C@]43[C@@H]65)C2)C1
T/C (dose: 0.3 mg/kg/injection, schedule: Q01DX009 (ip), vehicle: saline): 200 % of control
T/C (dose: 0.5 mg/kg/injection, schedule: Q01DX010 (ip), vehicle: saline): 209 % of control
T/C (dose: 0.6 mg/kg/injection, schedule: Q01DX009 (ip), vehicle: water): 95 % of control
T/C (dose: 0.8 mg/kg/injection, schedule: Q04DX003 (ip), vehicle: saline): 210 % of control
T/C (dose: 0.8 mg/kg/injection, schedule: Q04DX003 (ip), vehicle: water): 212 % of control
T/C (dose: 0.84 mg/kg/injection, schedule: Q01DX005 (ip), vehicle: saline): 94 % of control
T/C (dose: 1.0 mg/kg/injection, schedule: Q01DX005 (ip), vehicle: saline): 214 % of control
T/C (dose: 1.0 mg/kg/injection, schedule: Q04DX004 (ip), vehicle: saline): 213 % of control
T/C (dose: 1.5 mg/kg/injection, schedule: Q01DX003 (ip), vehicle: saline): 200 % of control
T/C (dose: 1.5 mg/kg/injection, schedule: Q04DX004 (ip), vehicle: saline): 216 % of control
T/C (dose: 1.67 mg/kg/injection, schedule: Q04DX003 (ip), vehicle: saline): 219 % of control
T/C (dose: 1.8 mg/kg/injection, schedule: Q04DX003 (ip), vehicle: saline): 214 % of control and 225 % of control
T/C (dose: 2.0 mg/kg/injection, schedule: Q01DX003 (ip), vehicle: saline): 202 % of control
T/C (dose: 2.0 mg/kg/injection, schedule: Q04DX002 (ip), vehicle: saline): 216 % of control
T/C (dose: 2.7 mg/kg/injection, schedule: Q04DX003 (ip), vehicle: saline): 94 % of control
T/C (dose: 2.7 mg/kg/injection, schedule: Q04DX003 (iv), vehicle: saline): 88 % of control
T/C (dose: 3.0 mg/kg/injection, schedule: Q01DX003 (ip), vehicle: saline): 200 % of control
T/C (dose: 3.0 mg/kg/injection, schedule: Q04DX002 (ip), vehicle: saline): 207 % of control
T/C (dose: 3.33 mg/kg/injection, schedule: Q04DX002 (ip), vehicle: saline): 219 % of control
T/C (dose: 3.5 mg/kg/injection, schedule: Q04DX003 (ip), vehicle: saline): 255 % of control

Cc1[nH]c(=O)[nH]c(=O)c1N(CCF)CCCl
T/C (dose: 4.0 mg/kg/injection, schedule: Q03HX016 (ip), vehicle: acid diluted with saline): 97 % of control
T/C (dose: 14.0 mg/kg/injection, schedule: Q01DX009 (ip), vehicle: saline with Tween-80): 168 % of control
T/C (dose: 16.0 mg/kg/injection, schedule: Q01DX005 (ip), vehicle: Klucel (hydroxypropylcellulose) (HPC)): 165 % of control
T/C (dose: 16.0 mg/kg/injection, schedule: Q03HX016 (oral), vehicle: other): 92 % of control
T/C (dose: 32.0 mg/kg/injection, schedule: Q01DX005 (ip), vehicle: Klucel (hydroxypropylcellulose) (HPC)): 186 % of control
T/C (dose: 64.0 mg/kg/injection, schedule: Q01DX001 (ip), vehicle: acid diluted with saline): 97 % of control
T/C (dose: 64.0 mg/kg/injection, schedule: Q08DX002 (ip), vehicle: acid diluted with saline): 97 % of control
